# Test results reported in PubChem BioAssay AID1508642 (National Center for Advancing Translational Sciences (NCATS), 2021).
# Hit rate of the full screen: of about 43,000 compounds, about 200 (0.47%) were called active. Inconclusive results (about 12%) are left out. Calls come from the whole dose curve; as a rule, active = well fitted cell-killing curve with a large enough effect; inconclusive = small, poorly fitted or top-dose-only effect, or effect the other way; inactive = flat fitted curve, though single readings scatter. The list shows a part of the results.
# Assay: Cell viability qHTS assay in S16 Pmp22-F2sN cells; note: nearly all actives have a fitted effect of over 65% in size
# Conditions: S16 Pmp22-F2sN Schwann cells (luciferase reporters placed in the Pmp22 gene) viability, CellTiter-Glo, 24 h; series mostly up to 57.5 µM; activity change, negative = cytotoxicity: at the top concentration
# Procedure, shortened: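 Seed 500-1,000 S16 Pmp22-F2sN cells per well in phenol-red-free DMEM with 10% heat-inactivated FBS; pin-add 23 nL compound; incubate 24 h at 37C; add CellTiter-Glo, wait 15 min protected from light; read luminescence.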
# % is set by controls: 0 for no effect and ±100 for the full control effect.
row,SMILES,"activity change, negative = cytotoxicity"
1,COc1cc(C2c3c(-c4cc(C)ccc4O)n[nH]c3C(=O)N2Cc2cccnc2)cc(OC)c1OC (stereo not drawn),inactive: -3.33%
2,Cc1ccc(-n2c(SCC(=O)N3CCc4ccccc43)nc3c([nH]c4ccccc43)c2=O)cc1,inactive: 1.72%
3,CCn1cc2nc(SCC(=O)Nc3cc(OC)ccc3OC)n(Cc3ccc(Cl)cc3)c(=O)c2n1,inactive: 22.1%
4,O=C(NC1CCCCC1)c1ccc2c(c1)N(Cc1ccccc1F)C(=O)c1ccccc1S2,inactive: -8.45%
5,Cn1c(=O)c(=O)n(C)c2cc(S(=O)(=O)N3CCCC3C(=O)Nc3cccc(F)c3)ccc21 (stereo not drawn),inactive: 2.28%
6,O=C(CCn1c(=O)c2cccn2c2cccnc21)N1CCN(c2ccc(F)cc2)CC1,inactive: -3.84%
7,COc1ccccc1CCNC(=O)Cn1ccc2cc(S(=O)(=O)N3CCCCC3)ccc21,inactive: -14.1%
8,CCCC(=O)Nc1nnc(SCc2cc(=O)n3ccccc3n2)s1,inactive: -10.2%
9,Cc1cc(NC(=O)c2ccccc2F)ccc1-c1nc2ccccc2s1,inactive: -2.04%
10,Cc1ccc(-n2cnc3cc(C(=O)NCCC4=CCCCC4)ccc32)c(C)c1,inactive: -15.3%
11,Cc1cccc(C)c1OCC(=O)N(Cc1ccccc1F)C1CCS(=O)(=O)C1 (stereo not drawn),inactive: 0.48%
12,CCc1ccc(NC(=O)c2sc(-n3nc(C)c(CCC(C)C)c3C)nc2C)cc1,inactive: -7.14%
13,COc1ccc(C(=O)N2CC(=O)Nc3ccc(Br)cc3C2c2ccc(F)cc2)cc1OC (stereo not drawn),inactive: -16.4%
14,CCOC(=O)Cc1ccc(NC(=O)N(Cc2ccc(OC)cc2)C2CCN(C(C)=O)CC2)cc1,inactive: -0.535%
15,CCOC(=O)c1c(NC(=O)/C(C#N)=C/c2ccc(OC)cc2)sc2c1CCC2,inactive: -1.46%
16,CC(=O)c1ccc(S(=O)(=O)Nc2ccc(-c3cn4c(C)csc4n3)cc2)cc1,inactive: 13.7%
17,CCOC(=O)c1c(NC(=O)c2ccc(C)cc2)sc2c1CCCCC2,inactive: 13.6%
18,COc1ccc(C)cc1NC(c1nnc(-c2ccccc2)o1)c1ccc(F)cc1Cl (stereo not drawn),inactive: 0.623%
19,CCc1ccc(N2CC(c3nnc(NC(=O)c4ccco4)s3)CC2=O)cc1 (stereo not drawn),inactive: -6.03%
20,N#Cc1ccccc1NC(=O)CSc1nc(-c2ccccc2)cc(C(F)(F)F)c1C#N,inactive: -5.48%
21,O=C(NC1CC(=O)N(c2ccc(F)cc2)C1)C1CCCC1 (stereo not drawn),inactive: 5.96%
22,Cc1ccc(Cc2cnc(NC(=O)c3ccc4c(c3)CC(c3ccccc3)OC4=O)s2)cc1 (stereo not drawn),inactive: 4.15%
23,Cc1c(C(=O)Nc2ccc(F)cc2F)oc2c1-c1nn(Cc3c(F)cccc3Cl)cc1CC2,inactive: -2.35%
24,Cc1ccc(Nc2nc(-c3ccccc3)nc3ccccc23)cc1,inactive: 18.2%

row,SMILES,"activity change, negative = cytotoxicity"
1,COc1cc(Cl)c(C)cc1NC(=O)c1cc(S(=O)(=O)N2CCCC2)ccc1F,inactive: -1.67%
2,O=C(Cn1c(-c2cccs2)cc2ccccc21)N1CCN(c2ccc(Cl)cc2)CC1,inactive: 8.34%
3,CCOc1ccc(C2C(C(=O)Nc3ccccc3)=C(C)Nc3nc(-c4ccccc4)nn32)cc1OC (stereo not drawn),inactive: -1.2%
4,COc1cccc(-c2csc(-c3c(N)c(C(=O)c4ccc5c(c4)OCO5)n4ccccc34)n2)c1,inactive: 29%
5,CCNC(=O)c1ccc(C)c(-n2c(C)nc3cccnc32)c1,inactive: -0.39%
6,Cc1ccc(NC(=O)Cn2c(=O)c3ccc(Cl)cc3n3nncc23)cc1,inactive: 7.72%
7,COc1ccc(OC)c(NC(=O)C(C)n2c(=O)cc(C)c3c(C)nn(-c4ccccc4)c32)c1 (stereo not drawn),inactive: 2.21%
8,O=c1c2cnn(-c3ccc(F)cc3)c2ncn1Cc1ccccc1Cl,inactive: 4.66%
9,Cc1ccc(CNC(=O)c2c[nH]c3ccc(S(=O)(=O)N4CCOCC4)cc3c2=O)cc1,inactive: -3.17%
10,Cc1cc(C)n(CCc2nc3c4ccccc4nc(SCc4ccc(F)cc4)n3n2)n1,inactive: -1.26%
11,COc1ccc(-c2cn3c(n2)sc2cc(C(=O)NCCC4=CCCCC4)ccc23)cc1,inactive: 15%
12,Cc1ccc(CN(Cc2ccco2)C(=O)c2ccccc2Br)o1,inactive: -2.67%
13,CCCOc1cccc(C2c3c(oc4ccc(F)cc4c3=O)C(=O)N2CCCN2CCOCC2)c1 (stereo not drawn),inactive: 25.7%
14,CC(C)c1nn2c(=O)cc(COC(=O)C3CCCCC3)nc2s1,inactive: -0.918%
15,Cc1cc(Br)cc(C)c1NC(=O)c1sc2ncn(Cc3cccc(F)c3)c(=O)c2c1C,inactive: -8.12%
16,CCCOc1ccc(-c2nonc2NC(=O)c2ccco2)cc1OCCC,inactive: -13.8%
17,Cc1nc(-c2ccc(S(=O)(=O)N3CCN(c4cccc(C(F)(F)F)c4)CC3)cc2)co1,inactive: 2.84%
18,CC1CCN(C(=O)c2cc3c(=O)n(C)c4cc(Cl)ccc4c3s2)CC1,inactive: 0.266%
19,CC(=O)c1ccc(N2CCN(C(=O)c3cc(S(=O)(=O)N4CCCCCC4)cn3C)CC2)cc1,inactive: 12.2%
20,Cc1cccc(NC(=O)CSc2ccc(-c3sc(-c4ccccc4)nc3C)nn2)c1C,inactive: 15%
21,CCOC(=O)c1sc2ncn(CC(=O)Nc3cc(Cl)ccc3C)c(=O)c2c1C,inactive: 0.448%
22,CCOC(=O)c1cc2c(=O)n3ccccc3nc2n(CC2CCCO2)c1=NC(=O)c1ccccc1Br (stereo not drawn),inactive: -1.35%
23,COCCCNC(=O)c1ccc(Cn2c(SCc3ccc(F)cc3)nc3cccnc32)cc1,inactive: -24.5%
24,O=C(OCc1cc(=O)n2nc(-c3cccs3)sc2n1)c1cccc(F)c1,inactive: 17.5%
